Laboratory results from the supplement of paper PMC4967469.

Legend:
Test in all cases: Viability of human cancer cell lines after 72 h of drug (GDSC screen)
JNK Inhibitor VIII = compound: CCOc1nc(NC(=O)Cc2cc(OC)ccc2OC)cc(N)c1C#N [JNK Inhibitor VIII]; details: top dose 10 µM; top dose inferred
Procedure: (§1)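 Human cancer cell lines in 384-well plates, medium with 10% serum, drug for 72 h over a 256-fold dose range (nine 2-fold or five 4-fold steps up to the top dose). Adherent lines were fixed and stained with the nucleic acid dye Syto60, suspension lines read with resazurin; signal relative to control wells, capped at 0 and 100%. One two-parameter sigmoid per drug and line, fitted in a mixed model over all curves with the slope shared within a line.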

JQ1 = compound: Cc1sc2c(c1C)C(c1ccc(Cl)cc1)=N[C@@H](CC(=O)OC(C)(C)C)c1nnc(C)n1-2 [JQ1]
Procedure: as §1

YM155 = compound: COCC[n+]1c2c(n(Cc3cnccn3)c1C)C(=O)c1ccccc1C2=O [YM155]; details: top dose 5.12 µM
Procedure: as §1

NSC-207895 = compound: CN1CCN(c2ccc([N+](=O)[O-])c3no[n+]([O-])c23)CC1 [NSC-207895]; details: top dose 20 µM; top dose inferred
Procedure: as §1

AMG-706 = compound: CC1(C)CNc2cc(NC(=O)c3cccnc3NCc3ccncc3)ccc21 [AMG-706]; details: top dose 2 µM; top dose inferred
Procedure: as §1

FTI-277 = compound: COC(=O)[C@H](CCSC)NC(=O)c1ccc(NC[C@@H](N)CS)cc1-c1ccccc1 [FTI-277]; details: top dose 1.024 µM; top dose inferred
Procedure: as §1

JNJ-26854165 = compound: c1ccc2c(CCNc3ccc(Nc4ccncc4)cc3)c[nH]c2c1 [JNJ-26854165]; details: top dose 10 µM
Procedure: as §1

SB-715992 = compound: Cc1ccc(C(=O)N(CCCN)[C@@H](c2nc3cc(Cl)ccc3c(=O)n2Cc2ccccc2)C(C)C)cc1 [SB-715992]; details: top dose 0.128 µM; top dose inferred
Procedure: as §1

Belinostat = compound: O=C(/C=C/c1cccc(S(=O)(=O)Nc2ccccc2)c1)NO [Belinostat]; details: top dose 20 µM; top dose inferred
Procedure: as §1

OSI-906 = compound: C[C@]1(O)C[C@@H](c2nc(-c3ccc4ccc(-c5ccccc5)nc4c3)c3c(N)nccn32)C1 [OSI-906]; details: top dose 2.56 µM; top dose inferred
Procedure: as §1

Docetaxel = compound: CC(=O)O[C@@]12CO[C@@H]1C[C@H](O)[C@@]1(C)C(=O)[C@H](O)C3=C(C)[C@@H](OC(=O)[C@H](O)[C@@H](NC(=O)OC(C)(C)C)c4ccccc4)C[C@@](O)([C@@H](OC(=O)c4ccccc4)[C@H]21)C3(C)C [Docetaxel]; details: top dose 0.0125 µM
Procedure: as §1

[1] = top dose 2.56 µM, screen: GDSC drug entry 163
[2] = top dose 1 µM, screen: GDSC drug entry 1218, top dose inferred

Cell Line	AUC (JNK Inhibitor VIII)	IC50 (JNK Inhibitor VIII)	AUC (JQ1; [1])	IC50 (JQ1; [1])	AUC (YM155)	IC50 (YM155)	AUC (NSC-207895)	IC50 (NSC-207895)	AUC (AMG-706)	IC50 (AMG-706)	AUC (FTI-277)	IC50 (FTI-277)	AUC (JNJ-26854165)	IC50 (JNJ-26854165)	AUC (SB-715992)	IC50 (SB-715992)	AUC (Belinostat)	IC50 (Belinostat)	AUC (OSI-906)	IC50 (OSI-906)	AUC (Docetaxel)	IC50 (Docetaxel)	AUC (JQ1; [2])	IC50 (JQ1; [2])
SAT (head and neck, adherent)	0.882	> 10 µM	0.828	> 2.56 µM	0.229	0.0324 µM	0.975	> 20 µM	0.963	> 2 µM	0.841	> 1.02 µM	0.791	7.65 µM	0.956	> 0.128 µM	0.481	1.08 µM	0.937	> 2.56 µM	0.7	0.00395 µM		
SCC-9 (head and neck, adherent)	0.979	> 10 µM	0.433	0.0996 µM	0.037	< 0.02 µM	0.866	> 20 µM	0.977	> 2 µM	0.941	> 1.02 µM	0.909	> 10 µM	0.57	0.0131 µM	0.398	0.607 µM	0.971	> 2.56 µM	0.645	0.00221 µM	0.895	> 1 µM
SCC-25 (head and neck, adherent)	0.984	> 10 µM	0.722	0.75 µM	0.057	< 0.02 µM	0.907	> 20 µM	0.982	> 2 µM	0.967	> 1.02 µM	0.911	> 10 µM	0.756	0.0491 µM	0.279	0.27 µM	0.973	> 2.56 µM	0.526	0.000928 µM	0.954	> 1 µM
SF295 (glioma, adherent)	0.89	> 10 µM	0.663	0.473 µM	0.131	< 0.02 µM	0.958	> 20 µM	0.962	> 2 µM	0.952	> 1.02 µM	0.836	7.38 µM	0.755	0.0467 µM	0.46	0.964 µM	0.979	> 2.56 µM	0.88	> 0.0125 µM	0.972	> 1 µM
SK-HEP-1 (liver, adherent)	0.989	> 10 µM	0.768	0.897 µM	0.211	0.0485 µM	0.735	5.56 µM	0.989	> 2 µM	0.958	> 1.02 µM	0.949	> 10 µM	0.949	> 0.128 µM	0.646	3.08 µM	0.96	> 2.56 µM	0.716	0.00304 µM	0.874	0.866 µM
SK-MEL-30 (melanoma, adherent)	0.985	> 10 µM	0.541	0.208 µM	0.056	< 0.02 µM	0.806	10.9 µM	0.932	> 2 µM	0.929	> 1.02 µM	0.845	7.84 µM	0.906	> 0.128 µM	0.444	0.87 µM	0.898	> 2.56 µM	0.899	> 0.0125 µM	0.984	> 1 µM
SK-N-AS (neuroblastoma, adherent)	0.974	> 10 µM	0.896	> 2.56 µM	0.283	0.0701 µM	0.943	> 20 µM	0.963	> 2 µM	0.981	> 1.02 µM	0.917	> 10 µM	0.804	0.0762 µM	0.263	0.234 µM	0.978	> 2.56 µM	0.867	> 0.0125 µM	0.982	> 1 µM
SK-N-SH (neuroblastoma, adherent)	0.957	> 10 µM	0.646	0.405 µM	0.901	> 5.12 µM	0.913	> 20 µM	0.922	> 2 µM	0.965	> 1.02 µM	0.883	> 10 µM	0.91	> 0.128 µM	0.308	0.364 µM	0.569	0.246 µM	0.956	> 0.0125 µM	0.986	> 1 µM
SK-OV-3 (ovary, adherent)	0.933	> 10 µM	0.523	0.187 µM	0.043	< 0.02 µM	0.959	> 20 µM	0.937	> 2 µM	0.948	> 1.02 µM	0.92	> 10 µM	0.52	0.00919 µM	0.341	0.403 µM	0.883	> 2.56 µM	0.789	0.00715 µM	0.958	> 1 µM
SKG-IIIa (cervix, adherent)	0.982	> 10 µM	0.846	> 2.56 µM	0.801	3.56 µM	0.981	> 20 µM	0.981	> 2 µM	0.978	> 1.02 µM	0.859	> 10 µM	0.982	> 0.128 µM	0.889	> 20 µM	0.977	> 2.56 µM	0.688	0.00317 µM	0.925	> 1 µM
SKN (uterus, adherent)	0.938	> 10 µM	0.825	1.99 µM	0.039	< 0.02 µM	0.724	6.28 µM	0.782	1.03 µM	0.979	> 1.02 µM	0.871	> 10 µM	0.897	> 0.128 µM	0.466	0.987 µM	0.971	> 2.56 µM	0.595	0.0015 µM	0.955	> 1 µM
SKN-3 (head and neck, adherent)	0.915	> 10 µM	0.911	> 2.56 µM	0.037	< 0.02 µM	0.669	4.04 µM	0.979	> 2 µM	0.973	> 1.02 µM	0.85	9.75 µM	0.959	> 0.128 µM	0.51	1.34 µM	0.961	> 2.56 µM	0.68	0.00275 µM	0.981	> 1 µM
SNU-182 (liver, adherent)	0.905	> 10 µM	0.606	0.317 µM	0.266	0.0662 µM	0.952	> 20 µM	0.936	> 2 µM	0.985	> 1.02 µM	0.884	> 10 µM	0.582	0.0136 µM	0.37	0.536 µM	0.978	> 2.56 µM	0.553	0.0011 µM	0.908	> 1 µM
SNU-387 (liver, adherent)	0.965	> 10 µM	0.539	0.207 µM	0.053	< 0.02 µM	0.847	18 µM	0.962	> 2 µM	0.944	> 1.02 µM	0.883	> 10 µM	0.969	> 0.128 µM	0.271	0.252 µM	0.687	0.577 µM	0.629	0.00187 µM	0.982	> 1 µM
SNU-423 (liver, adherent)	0.96	> 10 µM	0.691	0.604 µM	0.035	< 0.02 µM	0.582	2.17 µM	0.922	> 2 µM	0.94	> 1.02 µM	0.888	> 10 µM	0.766	0.0552 µM	0.313	0.34 µM	0.829	1.97 µM	0.785	0.00632 µM	0.851	0.974 µM
SNU-449 (liver, adherent)	0.979	> 10 µM	0.804	1.42 µM	0.151	0.0232 µM	0.961	> 20 µM	0.986	> 2 µM	0.981	> 1.02 µM	0.888	> 10 µM	0.982	> 0.128 µM	0.76	7.65 µM	0.865	> 2.56 µM	0.986	> 0.0125 µM	0.941	> 1 µM
SU8686 (pancreas, adherent)	0.985	> 10 µM	0.657	0.462 µM	0.036	< 0.02 µM	0.984	> 20 µM	0.986	> 2 µM	0.968	> 1.02 µM	0.931	> 10 µM	0.955	> 0.128 µM	0.63	3 µM	0.974	> 2.56 µM	0.769	0.00529 µM	0.984	> 1 µM
SUIT-2 (pancreas, adherent)	0.972	> 10 µM	0.441	0.11 µM	0.143	0.0228 µM	0.96	> 20 µM	0.916	> 2 µM	0.971	> 1.02 µM	0.897	> 10 µM	0.904	> 0.128 µM	0.408	0.692 µM	0.77	1.02 µM	0.959	> 0.0125 µM	0.985	> 1 µM
SW13 (adrenal gland, adherent)	0.987	> 10 µM	0.791	1.17 µM	0.717	1.33 µM	0.982	> 20 µM	0.968	> 2 µM	0.948	> 1.02 µM	0.858	8.43 µM	0.986	> 0.128 µM	0.913	> 20 µM	0.947	> 2.56 µM	0.657	0.00215 µM	0.954	> 1 µM
SW48 (large intestine, adherent)	0.986	> 10 µM	0.784	1.08 µM	0.214	0.0467 µM	0.924	> 20 µM	0.967	> 2 µM	0.987	> 1.02 µM	0.954	> 10 µM	0.774	0.0498 µM	0.438	0.849 µM	0.962	> 2.56 µM	0.606	0.00152 µM	0.983	> 1 µM

The IC50 comes from the fitted curve, where viability falls to half of the control; a fit beyond the top or the lowest dose is shown as a bound at that dose. AUC, from the same fit, is the share of area under the viability curve across the 256-fold dose range; it is 1 without any effect and falls as sensitivity rises. For some of these results: An inferred top dose comes from the curve model; the source does not state it. For some of these results: An entry number marks a drug with two screens in the source, which often give different values.
